Results as given in the RNAGym collection of RNA variant scans (doi:10.1093/nar/gkz1192).
Read counts are not given, so values of variants with three or more changes are uncertain.

B1: CPEB3 Ribozyme (parent)
chain: UAACAGGGGGCCACAGCAGAAGCGUUCACGUCGCAGCCCCUGUCAGAUUCUGGUGAAUCUGCGAAUUCUGCUGUAUAUCUC

Variants of: B1
Test: self-cleavage, relative activity (ratio to wild type); higher = more cleavage; in vitro, sequencing
Method in brief: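 Libraries of CPEB3 self-cleaving ribozyme mutants came from rounds of error-prone PCR and carried barcodes, which DNA sequencing matched to variants. In vitro transcription used T7 RNA polymerase at 37°C for 5 hours, with a further 15 min in DNase I before EDTA stopped the reaction; the ribozymes cleaved during both steps. The RNA was reverse transcribed with template switching and sequenced on Illumina. Relative activity is the cleaved/total read fraction of a variant divided by that of the unmutated ribozyme, averaged over three batches with at least 5 reads.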
In the case of A15G A20G U25C U60C U66C G73A A77G, the self-cleavage is reported as 0.12. For A15G A20G U25C U78C, the self-cleavage was 0.41. In the case of A15G A20G U31A A45G A47G U72C, the self-cleavage is reported as 0.08. In the case of A15G A20G U49A U51C U54C U72C, the self-cleavage is reported as 0.63. In the case of A15G A20G U49C, the self-cleavage is reported as 0.15. Work on A15G A20G U80C yielded a self-cleavage of 0.59. A15G A20U A21G C23U A64U U67A gave a self-cleavage of 0.08. A15G A20U A21G U43C G55U gave a self-cleavage of 0.09. Work on A15G A20U A21U C40U U80C yielded a self-cleavage of 0.25. A15G A20U A28G showed a self-cleavage of 0.26. With A15G A20U A35G the self-cleavage was 0.16. Work on A15G A20U A77G yielded a self-cleavage of 0.29. A15G A20U G24A gave a self-cleavage of 0.29. Variant A15G A20U G30A U51C A57U U80C has a self-cleavage of 0.12. Work on A15G A20U G33U U69C U72A U80C yielded a self-cleavage of 0.05. With A15G A20U U25A A47G U54C U72A U78C the self-cleavage was 0.24. With A15G A20U U43A A47G the self-cleavage was 0.2. A15G A20U U58C U60C A64G gave a self-cleavage of 0.09. A15G A20U U69A U72G showed a self-cleavage of 0.09. In the case of A15G A20U U78C, the self-cleavage is reported as 0.26. A15G A21C A28U A35U gave a self-cleavage of 0.21. A15G A21C A35U U41A G55C U69C showed a self-cleavage of 0.05. A15G A21C C44A A56G A64G U69A showed a self-cleavage of 0.12. In the case of A15G A21G A28G A45U U69A U72A, the self-cleavage is reported as 0.04. Variant A15G A21G A28G U58A A64U A65G has a self-cleavage of 0.09. Variant A15G A21G A35U A56G U58A U69A G73A has a self-cleavage of 0.1. Work on A15G A21G A35U U41C U49C yielded a self-cleavage of 0.03. For A15G A21G A47G, the self-cleavage was 0.57. For A15G A21G A56C, the self-cleavage was 0.16. Work on A15G A21G A56G yielded a self-cleavage of 0.15. In the case of A15G A21G A56U U72C, the self-cleavage is reported as 0.66. Variant A15G A21G A57G U72A has a self-cleavage of 0.17. In the case of A15G A21G A65G U72C, the self-cleavage is reported as 0.6. Variant A15G A21G C32A U80C has a self-cleavage of 0.1. With A15G A21G C40U U41C the self-cleavage was 0.35. A15G A21G U25A U41C showed a self-cleavage of 0.37. A15G A21G U25C A28U A35C showed a self-cleavage of 0.02. Work on A15G A21G U26A C38G U43A U58A yielded a self-cleavage of 0.06. Variant A15G A21G U26C G33A U51A A56G U72C has a self-cleavage of 0.07. With A15G A21G U26C U49C A57G G63C A64G the self-cleavage was 0. For A15G A21G U26C U60A U72G, the self-cleavage was 0.07. Work on A15G A21G U26C U69A yielded a self-cleavage of 0.44. A15G A21G U31C A35U C38G U43A A45G showed a self-cleavage of 0.27. A15G A21G U31C C40U gave a self-cleavage of 0.23. A15G A21G U41A A57G gave a self-cleavage of 0.31. In the case of A15G A21G U41C, the self-cleavage is reported as 0.46. In the case of A15G A21G U41C A45C U51A A77G, the self-cleavage is reported as 0.04. A15G A21G U41C U60C U74C showed a self-cleavage of 0.22. A15G A21G U43A A65G U69A gave a self-cleavage of 0.11. A15G A21G U48C showed a self-cleavage of 0.22. In the case of A15G A21G U48C A64G U72C, the self-cleavage is reported as 0.09. A15G A21G U67A U80C gave a self-cleavage of 0.53. With A15G A21G U80A the self-cleavage was 0.94. In the case of A15G A21U A28G U43C A64U, the self-cleavage is reported as 0.13. Variant A15G A21U A35G U48C U60A has a self-cleavage of 0.14. Work on A15G A21U A45G yielded a self-cleavage of 0.28. A15G A21U C39A showed a self-cleavage of 0.19. In the case of A15G A21U G46C U72C U78C, the self-cleavage is reported as 0.15. For A15G A21U U26C A45U U58C, the self-cleavage was 0.09. With A15G A28C U41A C44A the self-cleavage was 0.3. A15G A28C U41C A45G gave a self-cleavage of 0.3. In the case of A15G A28C U66C, the self-cleavage is reported as 0.23. A15G A28G A35G gave a self-cleavage of 0.44. For A15G A28G A35G U41A C44A A45G U76C, the self-cleavage was 0.11. In the case of A15G A28G A35U, the self-cleavage is reported as 0.25. With A15G A28G A45C G73A the self-cleavage was 0.16. Variant A15G A28G C32A has a self-cleavage of 0.14. Variant A15G A28G C37A C39U A56G U60A U69G has a self-cleavage of 0.13. Variant A15G A28G G33A A45G G63U U74C has a self-cleavage of 0.08. Work on A15G A28G G36C A47G U51A A56G A57C yielded a self-cleavage of 0.17. Variant A15G A28G G46A A47G G52U U80A has a self-cleavage of 0.11. Work on A15G A28G U31A U43A yielded a self-cleavage of 0.33. A15G A28G U43A U72C U74C showed a self-cleavage of 1.44. Work on A15G A28G U49C U51A C59U U72C yielded a self-cleavage of 0.08. In the case of A15G A28G U49C U72A U80C, the self-cleavage is reported as 0.09. For A15G A28G U67A U78A, the self-cleavage was 0.23. In the case of A15G A28G U67C U72C, the self-cleavage is reported as 0.11. A15G A28G U67G gave a self-cleavage of 0.16. For A15G A28G U69C, the self-cleavage was 0.34. Work on A15G A28G U72A yielded a self-cleavage of 0.11. With A15G A28G U72C the self-cleavage was 0.97. A15G A28U A35G U54A A56U A64G A77G gave a self-cleavage of 0.11. Work on A15G A28U A35U U67C yielded a self-cleavage of 0.15. Variant A15G A28U A45G U51C U54C U69C G70U has a self-cleavage of 0.08. A15G A28U A47G U72C gave a self-cleavage of 0.99. A15G A28U C39U U72C gave a self-cleavage of 0.75. A15G A28U C40U U48C C50U U72C showed a self-cleavage of 0.12. In the case of A15G A28U C44U A56U A57G A64G, the self-cleavage is reported as 0.08. Variant A15G A28U C68U U72G has a self-cleavage of 0.05. For A15G A28U G46A U60A U69C U72A, the self-cleavage was 0.05. With A15G A28U G61U the self-cleavage was 0.16. With A15G A28U U31A the self-cleavage was 0.55. In the case of A15G A28U U48A U51A A56G U76C, the self-cleavage is reported as 0.08. For A15G A28U U48C U69C, the self-cleavage was 0.1. A15G A28U U49A G61A A77G showed a self-cleavage of 0.09. In the case of A15G A28U U69C, the self-cleavage is reported as 0.34. Work on A15G A28U U78G yielded a self-cleavage of 0.17. A15G A35C A47G U54C U76C U80C gave a self-cleavage of 0.58. In the case of A15G A35C U41C, the self-cleavage is reported as 0.58. With A15G A35C U51C C71A U78C the self-cleavage was 0.13. For A15G A35G A45G U58C U78A, the self-cleavage was 0.31. Work on A15G A35G A45G U69A A75C A77U yielded a self-cleavage of 0.17. A15G A35G A45U U67C A77G gave a self-cleavage of 0.18. Work on A15G A35G A56G yielded a self-cleavage of 0.42. With A15G A35G A57G the self-cleavage was 0.78. Work on A15G A35G A57G A75U A77G yielded a self-cleavage of 0.98. In the case of A15G A35G C79U, the self-cleavage is reported as 0.43. With A15G A35G G53U U54C U58C the self-cleavage was 0.24. For A15G A35G U41C G53A, the self-cleavage was 0.54. A15G A35G U43A A75G gave a self-cleavage of 0.87. In the case of A15G A35G U48C U54C, the self-cleavage is reported as 0.26. A15G A35G U54C A56G A64G showed a self-cleavage of 0.4. Variant A15G A35G U54C G61A has a self-cleavage of 0.13. A15G A35G U72G U76C showed a self-cleavage of 0.54. With A15G A35U A45G A64U the self-cleavage was 0.19. Variant A15G A35U A45G A77G has a self-cleavage of 0.18. Work on A15G A35U A45G U49C U60C U78C yielded a self-cleavage of 0.09. A15G A35U A45U G61A showed a self-cleavage of 0.15. A15G A35U A45U U51C gave a self-cleavage of 0.18. In the case of A15G A35U A56G, the self-cleavage is reported as 0.24. A15G A35U A64U U66C gave a self-cleavage of 0.16. For A15G A35U A64U U69C, the self-cleavage was 0.12. Variant A15G A35U C40U has a self-cleavage of 0.33. A15G A35U G73A gave a self-cleavage of 0.78. A15G A35U U41C U60C U67C U74A gave a self-cleavage of 0.1. A15G A35U U43A C50A A56U U66A showed a self-cleavage of 0.21. In the case of A15G A35U U43C U49C, the self-cleavage is reported as 0.07. Work on A15G A35U U43C U69C U72A yielded a self-cleavage of 0.09. In the case of A15G A35U U51C, the self-cleavage is reported as 0.3. A15G A35U U54C A65G A75C U80C showed a self-cleavage of 0.11. Work on A15G A35U U54G A75U yielded a self-cleavage of 0.67. A15G A35U U69C U72G gave a self-cleavage of 0.07. For A15G A35U U72A, the self-cleavage was 0.25. Variant A15G A35U U74C U80C has a self-cleavage of 0.9. A15G A45C A57G showed a self-cleavage of 0.2. A15G A45G A56U A77C showed a self-cleavage of 0.05. A15G A45G G53C U69C U78G showed a self-cleavage of 0.17. Variant A15G A45G U48C has a self-cleavage of 0.47. With A15G A45G U51A U54C C59A the self-cleavage was 0.24. Work on A15G A45G U54A U72C yielded a self-cleavage of 1.13. A15G A45G U58G C59U showed a self-cleavage of 0.16. With A15G A45G U60C U78C the self-cleavage was 0.43. A15G A45G U80C gave a self-cleavage of 0.94. A15G A45U A47G showed a self-cleavage of 0.35. For A15G A45U A47G C81U, the self-cleavage was 0.5. A15G A45U A64U showed a self-cleavage of 0.29. Variant A15G A45U C62U has a self-cleavage of 0.38. Variant A15G A45U U49G has a self-cleavage of 0.15. A15G A45U U69C showed a self-cleavage of 0.15. For A15G A45U U69C U72A, the self-cleavage was 0.13. With A15G A47G A56U the self-cleavage was 0.27. For A15G A47G A75G, the self-cleavage was 0.89. In the case of A15G A47G A77G, the self-cleavage is reported as 1.15. With A15G A47G U48C G55U U76A the self-cleavage was 0.1. Work on A15G A47G U48G yielded a self-cleavage of 0.14. A15G A47G U51C U60C showed a self-cleavage of 0.27. Variant A15G A47G U74G has a self-cleavage of 1.2. Variant A15G A56G A57G U72C has a self-cleavage of 0.63. Variant A15G A56G A64U U72G C79U has a self-cleavage of 0.16. Work on A15G A56G U66C A77U yielded a self-cleavage of 0.31. Variant A15G A56U U67A has a self-cleavage of 0.17. For A15G A56U U80A, the self-cleavage was 0.65. With A15G A57G A64U the self-cleavage was 0.19. In the case of A15G A57G U58C A64G U69C, the self-cleavage is reported as 0.2. In the case of A15G A57G U58C U78C, the self-cleavage is reported as 0.13. With A15G A57G U60C A77G U80G the self-cleavage was 0.39. For A15G A57G U60C U80C, the self-cleavage was 0.31.
